From PMC4336329 (PLoS ONE, 2015)
In all, about 310,000 compounds went through this assay and about 14,000 (4.5%) showed an effect of 50% or more. The effect is printed as a negative number. This is one part of the list.

Molecular target: human ether-à-go-go-related gene (hERG) potassium channel (human, UniProt Q12809)
Test: primary screen, population patch clamp on CHO cells stably expressing hERG
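Also: peak tail current of the secondary pulse compared with the same well before compound.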

Chain of human ether-à-go-go-related gene (hERG) potassium channel (Q12809 whole entry, looked up): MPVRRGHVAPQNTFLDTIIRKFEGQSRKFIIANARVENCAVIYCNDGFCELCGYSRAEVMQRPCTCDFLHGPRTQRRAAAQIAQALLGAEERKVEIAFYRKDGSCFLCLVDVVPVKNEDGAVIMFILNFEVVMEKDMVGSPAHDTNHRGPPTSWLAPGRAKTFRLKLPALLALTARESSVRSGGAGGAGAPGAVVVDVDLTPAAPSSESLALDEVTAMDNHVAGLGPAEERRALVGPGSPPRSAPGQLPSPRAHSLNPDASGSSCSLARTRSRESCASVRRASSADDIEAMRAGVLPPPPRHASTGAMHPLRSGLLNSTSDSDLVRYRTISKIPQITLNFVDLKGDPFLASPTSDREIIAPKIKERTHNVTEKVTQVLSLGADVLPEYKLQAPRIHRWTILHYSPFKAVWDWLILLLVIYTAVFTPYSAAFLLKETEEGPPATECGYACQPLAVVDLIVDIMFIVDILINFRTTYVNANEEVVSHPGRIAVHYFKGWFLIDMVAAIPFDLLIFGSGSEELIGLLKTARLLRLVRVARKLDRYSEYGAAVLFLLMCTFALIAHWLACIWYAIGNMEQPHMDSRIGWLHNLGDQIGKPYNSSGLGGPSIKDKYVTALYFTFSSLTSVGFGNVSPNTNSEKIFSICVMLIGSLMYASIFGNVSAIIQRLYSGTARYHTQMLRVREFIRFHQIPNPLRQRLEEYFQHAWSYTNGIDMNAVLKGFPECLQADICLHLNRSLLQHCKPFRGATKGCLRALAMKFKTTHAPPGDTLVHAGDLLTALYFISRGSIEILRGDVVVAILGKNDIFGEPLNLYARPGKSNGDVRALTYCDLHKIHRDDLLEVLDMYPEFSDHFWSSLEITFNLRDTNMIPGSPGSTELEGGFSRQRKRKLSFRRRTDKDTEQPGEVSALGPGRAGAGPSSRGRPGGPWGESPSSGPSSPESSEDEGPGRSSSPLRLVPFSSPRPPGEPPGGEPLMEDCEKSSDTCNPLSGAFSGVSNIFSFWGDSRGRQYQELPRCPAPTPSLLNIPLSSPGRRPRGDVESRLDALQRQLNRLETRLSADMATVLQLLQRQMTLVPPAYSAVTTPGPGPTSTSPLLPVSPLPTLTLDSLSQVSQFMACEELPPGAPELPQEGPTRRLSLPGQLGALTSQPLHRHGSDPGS

SMILES | hERG current change (%, negative = inhibition) at 10uM [%]
CNC(=O)C(=O)NCC(c1cccs1)S(=O)(=O)c1ccc(F)cc1 (stereo not shown) | 12.5
COC(=O)c1ccc(NC(=O)CSc2ccc(-c3ccccn3)nn2)cc1 | 12.3
CCN(Cc1ccccc1)C(c1cc2ccc(C)cc2[nH]c1=O)c1nnnn1CCOC (stereo not shown) | -25
Cc1ccc(S(=O)(=O)NCCC(=O)Nc2cccc(S(N)(=O)=O)c2)cc1C | 17.6
Cc1cccc(C)c1OCC(=O)OCC(=O)c1ccc2c(c1)NC(=O)CO2 | -14.7
CN(CC(=O)Nc1ccccc1C(F)(F)F)C(=O)CSc1nnnn1C | 16.4
CCn1c(CNC(=O)c2cccc(C)c2)nnc1SCC(=O)N1CCOCC1 | 3.52
COc1ccc(-n2nc(C(=O)O)cc2-c2ccccc2)cc1 | 19.5
Cc1ccc(Nc2nc3ccccc3nc2-n2nc(C)cc2C)cc1 | 6.44
CCn1cc(C(=O)NCCCN2CC(C)CC(C)C2)c2cc(OC)c(OC)cc2c1=O (stereo not shown) | 6.72
CCc1nc(Nc2cccc(O)c2)c2oc3ccccc3c2n1.Cl | 12.4
CC(C(=O)Nc1ccncc1)(c1ccccc1)c1ccccc1 | -39.4
CN(Cc1cccs1)C(=O)Cc1csc(-c2ccccc2)n1 | 0.862
CCCOc1cccc(C(=O)Nc2ccccc2C(=O)N2CCN(C)CC2)c1 | -43.2
C=CCNC(=O)CC1C(=O)NCCN1Cc1ccc(-c2ccccc2)cc1 (stereo not shown) | -7.59
O=C(NCCC1CCCCN1S(=O)(=O)c1ccccc1)C(=O)NCc1ccccc1F (stereo not shown) | 1.99
Cc1ccc(NC(=O)CCCCCN2C(=O)[C@@H]3Cc4ccccc4CN3C2=O)cc1 | -12.1
Cc1nc([N+](=O)[O-])c(N2CCOCC2)n1Cc1ccccc1 | 9.64
Cc1ccccc1OCc1nnc(SC(C)C(=O)O)n1Cc1ccccc1 (stereo not shown) | 21.5
CCCN(C(=O)c1cc(Cl)nc2ccccc12)C1CCS(=O)(=O)C1 (stereo not shown) | 9.75
CCCC[C@@H]1C[C@H]1[C@@H](NC(=O)c1cccs1)c1ccc(Cl)cc1 | -9.44
Cc1ccc(NC(=O)c2c([N+](=O)[O-])c(C(C)(C)C)nn2C)cc1 | -2.47

SMILES | hERG current change (%, negative = inhibition) at 10uM [%]
Nc1c(Cl)cc(C2=NCCn3c2c2ccc([N+](=O)[O-])cc2[n+]3[O-])cc1Cl | -54.8
Cc1ccccc1CC1CCN(CCCNC(=O)Nc2ccccc2)CC1 | -68.5
Brc1ccccc1C1=Nn2c(nnc2-c2ccccc2)SC1 | 14.5
COCOc1ccc(C=O)c(O)c1 | 7.21
COc1ccccc1CNC(=O)CCn1c(=O)sc2ccccc21 | -5.44
Br.Cc1nc2ccc(NC3=NCCCCC3)cc2s1 | 3.35
Cc1[nH]n(-c2ccccc2)c(=O)c1/C=N/NC(=O)C(C)C | 21.7
CCN(CC)CCn1c2ccc(Cl)cc2c2nc(C)sc21.Cl | -68.2
COC(=O)C1=C(c2ccccc2)C[C@@H]2CC[C@H]1N2C(=O)NCCS(C)=O (stereo partly shown) | 21.3
Cc1c([N+](=O)[O-])cnc(Sc2ccccc2)c1[N+](=O)[O-] | 2.44
Cc1occc1C(=O)Nc1cc(C(F)(F)F)ccc1Cl | 7.62
C=CCn1cc(C(=O)OCC)c(=O)c2ccc(F)cc21 | 5.56
CN(CCOc1ccccc1)C(=O)c1cc(S(=O)(=O)N2CCCCC2)ccc1Cl | -42.7
CC1(C)NC(=O)N(CCOc2cccc(Oc3ccccc3)c2)C1=O | -12.9
O=c1c2c(nc3nc(NCc4ccc(Cl)cc4)[nH]n13)CCC2 | 23.2
COc1ccc(C2/C(=C(/O)c3ccc4c(c3)CC(C)O4)C(=O)C(=O)N2CCCN2CCOCC2)cc1 (stereo not shown) | 8.55
COc1ccccc1C(=O)NC(=O)COC(=O)c1ccc([N+](=O)[O-])cc1 | 7
COc1cc(/C=C(\NC(C)=O)C(=O)Nc2cccc(O)c2)ccc1OC(C)=O | -30.8
CC(C)CC(NS(=O)(=O)c1cc(C(=O)O)ccc1Cl)C(=O)O (stereo not shown) | 22.8
CCn1cc(C(=O)NC2CCCCCC2)c(=O)c2cc(S(=O)(=O)N3CCCCC3)ccc21 | 8.24
Cc1ccc(S(=O)(=O)Oc2ccc3ccc(O)cc3c2)cc1 | 7.55
Cc1cc(C)cc(C(=O)NCC(=O)OCC(=O)N(C)C2CCS(=O)(=O)C2)c1 (stereo not shown) | 17.7

SMILES | hERG current change (%, negative = inhibition) at 10uM [%]
O=C(N/N=C\C=C\c1ccc(Br)cc1)c1ccc2c(c1)OCO2 | 11.7
O=C(NNC1=Nc2cc([N+](=O)[O-])ccc2OC1)c1ccccc1Cl | 0.199
CSc1ccc(/C=N/NC(=O)CNc2ccc3ccccc3c2)cc1 | 11.2
COc1ccc(NC(=O)CSc2c(C)nn(-c3nnc(C)c(=O)[nH]3)c2C)cc1 | 23.6
CC(C(=O)N1CCN(c2ccccc2)CC1)c1ccc([N+](=O)[O-])cc1 (stereo not shown) | -42.7
Cc1cccnc1NC1(C(F)(F)F)N=C2SCCN2C1=O (stereo not shown) | 16.6
COC(=O)[C@H](CCSC)NC(=O)Nc1cccc(Br)c1 | 12.8
Cc1c(C(=O)OCc2nc3scc(-c4ccccc4)c3c(=O)[nH]2)cccc1[N+](=O)[O-] | 12.8
CCCCN(C)CCCNC(=O)c1cc(-c2cccs2)nc2ccccc12 | -85.6
CCOC(=O)C1CCN(C(=O)Cc2c(C(=O)O)n(CC)c3ccccc23)CC1 | 14.3
COc1ccc(C(=O)NC2CCSc3ccccc32)cc1F (stereo not shown) | 6.53
N#CC1(c2ccccc2)CCCN1C(=O)c1ccccc1Br (stereo not shown) | 1.6
CNC(=S)NN(C)c1nc(C)cc(C)n1 | 11.2
CCOC(=O)C1(Cc2ccccc2)CCN(CC2CC=CCC2)CC1 (stereo not shown) | -54.9
CN(C)/C=C/c1onc(-c2c(F)cccc2Cl)c1C#N | -2.45
CC(C)N(Cc1ccccc1)C(=O)CN1C(=O)NC(Cc2ccccc2)(c2ccccc2)C1=O (stereo not shown) | 6.78
COc1ccccc1C(=O)N/C(N)=N/c1nc2ccccc2o1 | 1.36
CCCNCC1C(Oc2ccc(Cl)cc2)C(=O)N1c1ccccc1C (stereo not shown) | -48.6
CCOC(=O)c1cc(-c2csc(Nc3ccccc3Cl)n2)on1 | -1.98
CC1CCN(C(=O)CCNC(=O)c2ccccc2)CC1 | 35.7
CC(=O)Nc1ccc(S(=O)(=O)NNC(=O)c2ccc([N+](=O)[O-])cc2)cc1 | -0.42
CSc1ccc(NC(=O)/C=C/C(=O)O)cc1 | 7.64

SMILES | hERG current change (%, negative = inhibition) at 10uM [%]
CCOC(=O)C1CCN(C(=O)c2ccccc2NC(=O)C2=C(C)OCCS2)CC1 | 19.6
CN(Cc1ccccc1)C(=O)c1cc2cc(F)ccc2[nH]1 | 13.4
CCNC(=O)COC(=O)c1cccc(Br)c1 | 4.94
CCOC(=O)[C@H]1[C@H]2COc3ccc(OC)cc3[C@@H]2N2C(=O)CN(Cc3ccc(Cl)cc3)C(=O)[C@@]12C | -12.2
CC(=O)NCCC(=O)Nc1ccc(F)cc1C | 11.7
O=C(CSc1nnc(-c2ccncc2)n1-c1ccc(Cl)cc1)Nc1ccc(C(=O)O)cc1 | 16.3
O=C(CN(Cc1ccco1)C(=O)CCC(=O)Nc1nccs1)NCc1ccccc1 | -3.83
c1ccc2c3c(cc(N4CCOCC4)c2c1)OC1(N2CCOCC2)CCCCC1O3 (stereo not shown) | -4.18
COc1cccc(NC(=O)COC(=O)COc2cccc3c2OC(C)(C)C3)c1 | -35.8
Cc1cc(C)c2sc(N(CCN(C)C)C(=O)c3ccc4ccccc4c3)nc2c1.Cl | 7.53
C/C(=N\NC(=O)c1ccc2c(c1)OCO2)c1cccnc1 | 15.2
O=C(NCCSc1ccccc1)c1ccccc1 | 6.11
O=C1NC(=O)N(Cc2ccco2)C(=O)/C1=C/c1ccc(-c2cccc([N+](=O)[O-])c2)o1 | -7.69
CCOC(=O)C1(Cc2ccc(OC)cc2)CCN(C(=O)c2sc(C)nc2C)CC1 | 1.86
COc1ccc(Cl)cc1N1C(=O)c2cccnc2C1=O | 18.6
CCOc1ccc(C(=O)c2ccncc2)cc1 | 9.82
CC1CC(C(=O)Nc2ccccc2)C(=O)O1 (stereo not shown) | 17.8
O=c1nc(-c2ccccc2)cn[nH]1 | -0.662
COc1ccc(CC(=O)N(CCC2=CCCCC2)c2c(N)n(Cc3ccccc3)c(=O)[nH]c2=O)cc1OC | -29
CC1=C(C(=O)OCc2ccccc2)C(c2cccc3ccccc23)NC(=O)N1CCCC(=O)O (stereo not shown) | 20.8
COc1ccc(CCNC(=O)CCN2C(=O)[C@@H]3Cc4ccccc4CN3C2=O)cc1OC | 3.08
CCOCCCNC(=O)C(NC(=O)CC1NC(=O)NC1=O)c1ccc(Cl)cc1 (stereo not shown) | 8.3
